Test results as given in patent US20240002405A1, “ANTIMICROBIAL COMPOUNDS, SYNTHESIS METHODS, AND USES THEREOF” (Ankh Life Sciences Limited, priority 2022, published 2024).

Tested on: engineered Salmonella typhimurium strain (umuC, β-galactosidase)
Settings: GK524 vs GK517.3 vs GK506.2Im, with and without S9

Structure (SMILES) | genotoxicity, comparison in words
COc1ccc2c3c([nH]c2c1)C(CC(CC1=NCCc2c1[nH]c1cc(OC)ccc21)c1c[nH]cn1)=NCC3 [1,1′-(2-(1H-imidazol-4-yl)propane-1,3-diyl)bis(7-methoxy-4,9-dihydro-3Hpyrido[3,4-b]indole)] | High genotoxic activity
COc1ccc2c3c([nH]c2c1)C(CC(CC1=NCCc2c1[nH]c1cc(OC)ccc21)c1cncs1)=NCC3 [GK524] | lowest toxicity
